In PubChem BioAssay AID624417 (National Center for Advancing Translational Sciences (NCATS), 2012):
Values joined by “and” are separate entries in the source; they are usually repeats but may differ in a detail not shown here. Equal entries are not always repeated. Among all 410,000 compounds or so, about 6,400 (1.6%) were called active. The inconclusive results got no clear call from the source; some entries with a clear call stand among them for comparison. Calls follow the shape of the dose curve; as a rule, active = well fitted inhibition curve with a large enough effect; inconclusive = small, poorly fitted or top-dose-only effect; inactive = no such curve, though single readings can be large or run the other way. A potency beside an inconclusive call is a rough fit, not a confirmed value.

What follows are compounds tested against Glucagon-like peptide 1 receptor (Homo sapiens) (UniProt P43220) (assay: qHTS of GLP-1 Receptor Inverse Agonists (Inhibition Mode)). Settings: HEK293 GLP-1R CRE-luciferase, luminescence, 24 h, GLP-1R form is constitutively active; activity change, negative = inhibition: at 38.3 µM (top of the series) unless noted.
UniProt P43220, sequence (P43220 whole entry, looked up): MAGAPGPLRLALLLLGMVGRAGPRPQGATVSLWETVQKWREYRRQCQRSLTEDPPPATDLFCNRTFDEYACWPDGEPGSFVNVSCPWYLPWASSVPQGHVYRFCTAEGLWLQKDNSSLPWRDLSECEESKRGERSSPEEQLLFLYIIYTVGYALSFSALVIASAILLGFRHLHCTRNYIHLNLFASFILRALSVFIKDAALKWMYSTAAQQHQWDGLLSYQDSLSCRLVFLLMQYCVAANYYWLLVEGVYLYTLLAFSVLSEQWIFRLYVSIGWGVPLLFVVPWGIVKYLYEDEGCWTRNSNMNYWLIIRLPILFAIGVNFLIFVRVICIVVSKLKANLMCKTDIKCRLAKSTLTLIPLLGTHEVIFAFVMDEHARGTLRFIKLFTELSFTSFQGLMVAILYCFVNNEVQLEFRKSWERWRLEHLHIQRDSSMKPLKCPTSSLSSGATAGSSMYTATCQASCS
Outline: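 Stable HEK293 clone (constitutively active GLP-1R + cAMP-response luciferase); 200 cells/uL plated, 12 h pre-culture, compound 24 hr, 37 deg C/5% CO2; detection reagent 12 min RT; luminescence.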
% is scaled to controls: 0 for no effect and ±100 for the full control effect; potency is read from the fitted curve at half-maximal effect; tags tell the direction and shape of the fitted curve.
Also: nearly all actives have a fitted effect of over 55% in size.

Compound	activity change, negative = inhibition	Potency
O=C(C1=C(O)C(=O)N(c2ncccn2)C1c1cccc(Cl)c1)c1ccco1 (stereo unspecified)	inactive: 0%	
COc1cc(CN2CCC(C(=O)NC(c3ccccc3)c3ccsc3)CC2)cc(OC)c1 (stereo unspecified)		inconclusive: 28.2 µM [inhibitor, single point]
O/C(=C\c1nc2ccccc2nc1/C=C(\O)c1ccccc1)c1ccccc1		inconclusive: 5.62 µM [inhibitor, partial curve, poor fit]
O=C(Nc1ccc(N2C(=O)C3C4C=CC(C4)C3C2=O)cc1)Nc1nnc(C(F)(F)F)s1 (stereo unspecified)		inconclusive: 20 µM [inhibitor, single point]
CN(C)c1ccc(-n2cccc2/C=C/[N+](=O)[O-])cc1		inconclusive: 7.08 µM [inhibitor, partial curve, poor fit]
N#Cc1cc(C(=O)c2ccccc2O)cn(-c2nccs2)c1=O	inactive: 1.03%	
CCc1ccc(N2C(=O)C(Cl)=C(N3CCOCC3)C2=O)cc1	inactive: 31.2%	
COc1ccc(C)cc1NC(=O)NNC(=O)C(C)Oc1ccc([N+](=O)[O-])cc1 (stereo unspecified)		inconclusive: 5.62 µM [inhibitor, partial curve, poor fit]
Cc1c(Cl)cccc1NC(=O)C1Cc2ccccc2CN1C(=O)c1ccccc1 (stereo unspecified)		inconclusive: 12.6 µM [inhibitor, single point]
O=C(CSc1nccn1-c1ncc(C(F)(F)F)cc1Cl)c1ccc(Br)cc1	inactive: -29.7%	
CNC(=O)c1cc2cc(OC)ccc2oc1=O	inactive: 0%	
Cc1ccc(C(C(=O)NCC2CCCO2)N(Cc2ccccc2)C(=O)c2ccc(-c3ccccc3)[nH]2)o1 (stereo unspecified)		inconclusive: 12.6 µM [inhibitor, partial curve, poor fit]
COC(=O)[C@@]1(Cc2ccc(OC)cc2)[C@H]2c3cc(C(=O)N4CCCC4)n(CCc4c[nH]c5ccccc45)c3C[C@H]2CN1C(=O)c1ccccc1		inconclusive: 11.2 µM [inhibitor, single point]
COc1ccc(N(Cc2ccccc2)S(=O)(=O)c2cccc(C(=O)NCC3CCCO3)c2)cc1 (stereo unspecified)		inconclusive: 28.2 µM [inhibitor, single point]
Cc1ccc2ncc(C(=O)c3ccc(C)c(C)c3)c(S(=O)(=O)c3ccccc3)c2c1		inconclusive: 10 µM [inhibitor, partial curve, poor fit]
COc1cc(OC)c(C(=O)NC23CC4CC(CC(C4)C2)C3)cc1OC		inconclusive: 12.6 µM [inhibitor, partial curve, poor fit]
COc1cccc(NC(=O)CN2C(=O)NC3(CCc4ccccc43)C2=O)c1 (stereo unspecified)	inactive: -0.63%	
COCCCn1c(SCC(=O)c2ccccc2)nc2ccccc2c1=O		inconclusive: 15.8 µM [inhibitor, partial curve, poor fit]
Cc1cccc(CN2C(=O)c3ccccc3Sc3ccc(C(=O)NCCCN4CCOCC4)cc32)c1		inconclusive: 12.6 µM [inhibitor, single point] and inconclusive: 10 µM [inhibitor, partial curve, poor fit]
CC(=O)/C(=N/Nc1cccc(Cl)c1)N1CCOCC1		inconclusive: 2.24 µM [inhibitor, full curve]
COC(=O)N/N=C/c1cn(Cc2ccc(Cl)cc2Cl)c2ccccc12		inconclusive: 11.2 µM [inhibitor, single point]

Compound	activity change, negative = inhibition	Potency
CCc1nc2ccc(C(=O)Nc3cccc(C(C)=O)c3)cc2nc1CC	inactive: 16.3%	
COc1ccccc1C1CCN(C(=O)c2ccccc2)CC1		inconclusive: 11.2 µM [inhibitor, partial curve]
CC1(C)CC(=O)C2=C(C1)C(c1cn(-c3ccccc3)nc1-c1ccccc1)C(C#N)=C(N)O2 (stereo unspecified)		inconclusive: 28.2 µM [inhibitor, single point]
Cc1cccc(NC(=O)COC(=O)c2c(-c3ccccc3)noc2C)c1		inconclusive: 20 µM [inhibitor, single point]
CCOc1ccc(S(=O)(=O)n2nc(C)cc2C)c2ccccc12		inconclusive: 5.62 µM [inhibitor, partial curve, poor fit]
O=C(/C=C/c1ccc(F)cc1)NCCC1=CCCCC1		inconclusive: 7.94 µM [inhibitor, partial curve, poor fit]
O=C1NC[C@H](CCCCN2C[C@H](Cc3ccc(O)cc3)N(Cc3ccccc3)C(=O)C2=O)N(CCc2ccc(O)cc2)C1=O	inactive: 21%	
CCOc1ccc(S(=O)(=O)N2CCCCCC2)cc1		inconclusive: 28.2 µM [inhibitor, single point]
Cc1ccccc1OCC(=O)Nc1ccccc1C(=O)OCc1cc(=O)n2nc(C3CC3)sc2n1	inactive: 0.139%	
COc1ccc2c(Cl)c(C(=O)N/N=C/c3ccc4c(c3)OCO4)sc2c1	inactive: -14.2%	
Cc1ccc(C(=O)c2cn(Cc3ccccc3)c3ccccc3c2=O)cc1	inactive: -32.2%	
CC(=O)Nc1cccc(NC(=O)CSc2nnc(NC(=O)c3ccco3)s2)c1	inactive: 11.1%	
COc1ccc(NC(=O)Cn2ccn(-c3ccc(C)c(C)c3)c(=O)c2=O)cc1Cl	inactive: -0.857%	
Cc1cc(N2CCN(c3ccc(F)cc3)CC2)n2cnnc2n1	inactive: 6%	
COc1ccc2nc(NC(=O)c3ccco3)sc2c1		inconclusive: 10 µM [inhibitor, partial curve, poor fit]
Cc1ccc(S(=O)(=O)N(C)CC(=O)Nc2cccc3c2CCCC3)cc1		inconclusive: 11.2 µM [inhibitor, partial curve, poor fit]
O=C(Nc1ccc(Cl)cc1F)c1cc(S(=O)(=O)NC2CCCCCC2)ccc1F		inconclusive: 28.2 µM [inhibitor, single point]
CCc1ccc(NC(=O)CN2C(C(=O)OC)=C(c3ccccc3)c3ccccc3S2(=O)=O)cc1		inconclusive: 22.4 µM [inhibitor, partial curve, poor fit]
Cc1ccc(CN2C(=O)C(C)(C)Oc3ccc(C(=O)N4CCCCC4)cc32)cc1		inconclusive: 15.8 µM [inhibitor, partial curve, poor fit]
CCn1c(=NC(=O)COc2ccccc2)sc2cccc(F)c21		inconclusive: 10 µM [inhibitor, partial curve]
